Data from the supplement of paper PMC8007513.
Counter-ions that a name gives are not always drawn. ± gives the standard error. In all, about 1,300 compounds went through this assay and about 75 (6%) showed an effect of 50% or more. The list shows a part of the results.

Tested on: Trichoderma virens ATCC 9645
Test: growth yield (OD600) relative to untreated control; higher = less growth inhibition
Conditions: compound concentration: 100 uM
Method in brief: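 Trichoderma virens ATCC 9645 spores at 15,000 spores ml^−1 in potato dextrose broth were exposed in 96-well plates to library compounds at 100 μM final, with or without a biocide at 200 ng ml^−1. After growth at 30 °C, OD600 was read at 40 h and 72 h. Values are growth relative to the control without either agent, averaged over duplicate screens.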

SMILES: O=C1CCc2cc(OCCCCc3nnnn3C3CCCCC3)ccc2N1 [Cilostazol]
- growth yield (40 h): 101 ± 5.4%
- growth yield (72 h): 101 ± 5.7%

SMILES: CCS(=O)(=O)CCn1c([N+](=O)[O-])cnc1C [Tinidazole]
- growth yield (40 h): 99.1 ± 2.9%
- growth yield (72 h): 96.6 ± 2%

SMILES: CCCCOc1cc(C(=O)NCCN(CC)CC)c2ccccc2n1 [Dibucaine]
- growth yield (40 h): 101.02 ± 1e-14%
- growth yield (72 h): 98.37 ± 0.21%

SMILES: CCC1=C(C)CN(C(=O)NCCc2ccc(S(=O)(=O)NC(=O)N[C@H]3CC[C@H](C)CC3)cc2)C1=O [Glimepiride]
- growth yield (40 h): 108 ± 9.1%
- growth yield (72 h): 103 ± 6.7%

SMILES: O=C(O)Cc1sc(-c2ccccc2)nc1-c1ccc(Cl)cc1 [Fentiazac]
- growth yield (40 h): 63.1 ± 4.3%
- growth yield (72 h): 88.8 ± 4.9%

SMILES: CC(=O)OCC(=O)[C@@]12N=C(C)O[C@@H]1C[C@H]1[C@@H]3CCC4=CC(=O)C=C[C@]4(C)[C@H]3[C@@H](O)C[C@@]12C [Deflazacort]
- growth yield (40 h): 100.07 ± 1.4e-14%
- growth yield (72 h): 97.7 ± 1.3%

SMILES: OCc1cc(C(O)CNCCCCCCOCCCCc2ccccc2)ccc1O (stereo not drawn) [Salmeterol]
- growth yield (40 h): 63.2 ± 2.9%
- growth yield (72 h): 96.6 ± 8.1%

SMILES: Cc1nc2n(c(=O)c1CCN1CCC(c3noc4cc(F)ccc34)CC1)CCCC2 [Risperidone]
- growth yield (40 h): 110 ± 5.2%
- growth yield (72 h): 104.9 ± 0.84%

SMILES: CNCCC(Oc1ccc(C(F)(F)F)cc1)c1ccccc1 (stereo not drawn) [Fluoxetine hydrochloride]
- growth yield (40 h): 107 ± 4.8%
- growth yield (72 h): 110 ± 4.1%

SMILES: C[C@@H](CN1CC(=O)NC(=O)C1)N1CC(=O)NC(=O)C1 [Dexrazoxane hydrochloride]
- growth yield (40 h): 101 ± 2.1%
- growth yield (72 h): 102.8 ± 0.21%

SMILES: CC(=O)Nc1ccc(CC(=O)O)cc1 [Actarit]
- growth yield (40 h): 106 ± 5.4%
- growth yield (72 h): 102 ± 3.4%

SMILES: CCN1CC(CCN2CCOCC2)C(c2ccccc2)(c2ccccc2)C1=O (stereo not drawn) [Doxapram hydrochloride]
- growth yield (40 h): 103 ± 3%
- growth yield (72 h): 102 ± 3.6%

SMILES: CCCCNC(=O)NS(=O)(=O)c1ccc(C)cc1 [Tolbutamide]
- growth yield (40 h): 106.4 ± 0.32%
- growth yield (72 h): 104.2 ± 0.84%

SMILES: O=C(O)c1cc(-c2ccc(F)cc2F)ccc1O [Diflunisal]
- growth yield (40 h): 78.8 ± 1.9%
- growth yield (72 h): 77.189 ± 1e-14%

SMILES: CCOC(=O)OC(C)OC1=C(C(=O)Nc2ccccn2)N(C)S(=O)(=O)c2ccccc21 (stereo not drawn) [Ampiroxicam]
- growth yield (40 h): 97.4 ± 2.1%
- growth yield (72 h): 98.48 ± 0.32%

SMILES: CC(=O)[C@H]1CC[C@H]2[C@@H]3C[C@H](C)C4=CC(=O)CC[C@]4(C)[C@H]3[C@@H](O)C[C@]12C [Medrysone]
- growth yield (40 h): 92.9 ± 6.2%
- growth yield (72 h): 91.8 ± 5.6%

SMILES: O=S(=O)(O)CCS [Mesna]
- growth yield (40 h): 100%
- growth yield (72 h): 99.21 ± 0.42%

SMILES: CCn1cc(C(=O)O)c(=O)c2cnc(N3CCCC3)nc21 [Piromidic acid]
- growth yield (40 h): 90.5 ± 5.7%
- growth yield (72 h): 92.1 ± 4%

SMILES: CC(C)(C)NC[C@H](O)c1ccc(O)c(CO)c1 [Levalbuterol hydrochloride]
- growth yield (40 h): 100 ± 1.6%
- growth yield (72 h): 97.64 ± 0.73%

SMILES: COc1ccc(-c2cc(=O)c3c(O)cc(O[C@@H]4O[C@H](CO[C@@H]5O[C@@H](C)[C@H](O)[C@@H](O)[C@H]5O)[C@@H](O)[C@H](O)[C@H]4O)cc3o2)cc1O [Diosmin]
- growth yield (40 h): 99.91 ± 0.16%
- growth yield (72 h): 103.8 ± 0.63%

SMILES: CCCCCCCN(CC)CCCC(O)c1ccc(NS(C)(=O)=O)cc1 (stereo not drawn) [Ibutilide fumarate]
- growth yield (40 h): 100 ± 2.9%
- growth yield (72 h): 101 ± 2.5%

SMILES: c1ccc2[nH]c(-c3cscn3)nc2c1 [Tiabendazole]
- growth yield (40 h): 1.43 ± 1.4%
- growth yield (72 h): 1.26 ± 1.3%

SMILES: CC1CS(=O)(=O)CCN1/N=C/c1ccc([N+](=O)[O-])o1 (stereo not drawn) [Nifurtimox]
- growth yield (40 h): 87.5 ± 1.4%
- growth yield (72 h): 84.22 ± 0.52%

SMILES: CN1CC2c3ccccc3Oc3ccc(Cl)cc3C2C1 (stereo not drawn) [Asenapine maleate]
- growth yield (40 h): 100 ± 1.3%
- growth yield (72 h): 106 ± 1.3%

SMILES: COc1cc(C(=O)NC2CCCNC2)cc(OC)c1OC (stereo not drawn) [Troxipide]
- growth yield (40 h): 111 ± 4.5%
- growth yield (72 h): 104 ± 3.8%

SMILES: C[C@]12CC[C@@H]3c4ccc(O)cc4CC[C@H]3[C@@H]1CCC2=O [Estrone]
- growth yield (40 h): 86.1 ± 1.9%
- growth yield (72 h): 86.9 ± 1.8%

SMILES: CN(C)[C@@H]1C(O)=C(C(N)=O)C(=O)[C@@]2(O)C(O)=C3C(=O)c4c(O)ccc(Cl)c4[C@@](C)(O)[C@H]3C[C@@H]12 [Chlortetracycline hydrochloride]
- growth yield (40 h): 90.54 ± 0.32%
- growth yield (72 h): 90.93 ± 0.32%

SMILES: CC(=O)N(CC(C)C(=O)O)c1c(I)cc(I)c(N)c1I (stereo not drawn) [Iocetamic acid]
- growth yield (40 h): 107 ± 1.6%
- growth yield (72 h): 104 ± 1.1%

SMILES: COc1cnc(NS(=O)(=O)c2ccc(N)cc2)nc1 [Sulfameter]
- growth yield (40 h): 104 ± 1.3%
- growth yield (72 h): 100 ± 0.84%

SMILES: O=C(O)CCC(=O)Nc1ccc(S(=O)(=O)Nc2nccs2)cc1 [Succinylsulfathiazole]
- growth yield (40 h): 94.7 ± 3.5%
- growth yield (72 h): 93.9 ± 2.6%

SMILES: Cc1cccc(CN2CCN(C(c3ccccc3)c3ccc(Cl)cc3)CC2)c1 (stereo not drawn) [Meclozine dihydrochloride]
- growth yield (40 h): 68.3%
- growth yield (72 h): 115%

SMILES: COc1ccccc1O [Guaiacol]
- growth yield (40 h): 103.9 ± 0.95%
- growth yield (72 h): 102.7 ± 0.32%

SMILES: CNCCC(Oc1ccccc1OC)c1ccccc1 (stereo not drawn) [Nisoxetine hydrochloride]
- growth yield (40 h): 99.6 ± 2.4%
- growth yield (72 h): 97 ± 3.5%

SMILES: CCCCC(C)(O)C/C=C/[C@H]1[C@H](O)CC(=O)[C@@H]1CCCCCCC(=O)OC (mixture of isomers) [Misoprostol]
- growth yield (40 h): 105 ± 1.3%
- growth yield (72 h): 109 ± 4.1%
